Over roughly 110,000 compounds, “z-score” has its median near -0.1; the highest 2% begin near 2. The list shows a part of the results. Calls of active or inactive are those of the source.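 How the source made its calls: active means z-score in the third read window above 3 or below -3; inactive means the rest.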

The target in the assay is Metabotropic glutamate receptor 8 (Rattus norvegicus) (UniProt P70579). Nature of the assay: rat mGluR8 modulators via GIRK flux, primary screen, cell-based, thallium flux, HTS (AID 488969). As to conditions: HEK293 rat mGluR8, GIRK (G protein-gated inwardly rectifying potassium channel) thallium flux, FluoZin2; at 10 µM; stronger effect = higher value; submaximal glutamate (EC20) added with thallium.
UniProt P70579, sequence (P70579 whole entry, looked up): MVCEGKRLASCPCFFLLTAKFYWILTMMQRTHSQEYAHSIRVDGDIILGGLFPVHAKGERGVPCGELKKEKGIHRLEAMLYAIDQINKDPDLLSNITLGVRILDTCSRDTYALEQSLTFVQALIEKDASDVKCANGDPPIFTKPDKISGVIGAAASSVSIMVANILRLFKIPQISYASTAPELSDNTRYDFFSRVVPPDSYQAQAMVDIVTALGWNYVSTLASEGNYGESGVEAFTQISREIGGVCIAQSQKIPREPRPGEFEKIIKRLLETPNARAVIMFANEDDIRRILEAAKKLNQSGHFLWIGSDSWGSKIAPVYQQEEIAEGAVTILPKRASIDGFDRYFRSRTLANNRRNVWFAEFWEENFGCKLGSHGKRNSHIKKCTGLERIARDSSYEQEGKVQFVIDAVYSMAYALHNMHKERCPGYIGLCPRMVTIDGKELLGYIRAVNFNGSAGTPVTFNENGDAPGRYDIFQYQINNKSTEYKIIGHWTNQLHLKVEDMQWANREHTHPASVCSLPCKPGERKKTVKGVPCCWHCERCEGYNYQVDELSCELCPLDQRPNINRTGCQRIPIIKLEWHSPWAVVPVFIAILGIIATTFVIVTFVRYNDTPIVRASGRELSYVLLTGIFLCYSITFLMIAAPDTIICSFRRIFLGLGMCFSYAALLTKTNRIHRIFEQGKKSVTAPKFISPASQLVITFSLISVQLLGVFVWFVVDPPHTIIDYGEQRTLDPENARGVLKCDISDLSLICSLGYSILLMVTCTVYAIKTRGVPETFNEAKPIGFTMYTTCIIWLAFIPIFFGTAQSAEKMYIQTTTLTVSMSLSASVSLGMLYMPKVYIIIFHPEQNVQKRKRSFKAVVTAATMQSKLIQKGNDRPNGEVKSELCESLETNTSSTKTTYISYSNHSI
For `Cc1nc2c(C)cccn2c1C(=O)c1ccccc1`, the z-score was -0.3.
Regarding `CN(C)CCCNCC(=O)Nc1ccccc1N1CCOCC1`, the z-score was found to be 0.116.
In the case of `CC(C)(C)NC(=O)Cn1c(=O)c(=O)n(Cc2ccccc2)c2ccc(Cl)cc21`, the z-score is -0.366.
In the case of `Cc1nn(-c2ccccc2)c(C)c1C(=O)NCc1cccs1` it was -0.127.
In the case of `COc1cccc(NC(=O)CN(C)C(=O)c2ccc3ccccc3c2)c1` it was -0.156.
With `c1ccc(CC2CCN(c3nnnn3-c3ccccc3)CC2)cc1`, the z-score amounted to 0.193.
For the molecule `C=CCN(c1cccc(C(F)(F)F)c1)S(=O)(=O)c1cccc(C(=O)OCC(=O)NCCC)c1`, the z-score is -0.367.
Turning to `O=C(NCC(=O)N(Cc1cccs1)C(C(=O)NC1CCCCC1)c1ccco1)c1ccco1` (stereo unspecified), the z-score amounted to 2.96.
With `O=C(O)Cc1c(O)ccc2ccccc12` the figure was -0.0548; with `O=C(O)c1ccc(-c2nc3ccccc3[nH]2)cc1`, -0.221.
In the case of `CN(C(=O)c1cccc(C#N)c1)c1nnc(-c2cnccn2)s1` it was -1.04; in that of `CSc1nc(C)c(Oc2ccccc2)c(=O)n1C`, -0.388.
With `O=C(Cn1c(-c2cncs2)nc2ccccc21)NCc1ccccc1` the figure was 0.385.
`Cn1c(=O)c2c(ncn2CC(N)=O)n(C)c1=O`: the z-score is -1.29.
Turning to `COc1ccc(N=Nc2nc(-c3ccccc3)c(-c3ccccc3)[nH]2)cc1`, the z-score was -0.365.
With `O=C(Nc1cccc2ncccc12)C12CC3CC(CC(C3)C1)C2` the figure was -0.203; with `COc1ccc(C2=NOC(C(=O)NCC(C)C)C2)cc1` (stereo unspecified), -0.398; with `Cc1cc(Oc2ccc(C#N)cc2)nc(N2CCOCC2)n1`, -0.0236.
`Cc1onc(-c2ccccc2)c1C(=O)Nc1ccc(N2CCOCC2)cc1`: the z-score is -0.074.
For `CCOC(=O)C1(C(F)(F)F)N=C(N(C)C)OC(N(C)C)=N1`, the z-score is -0.192.
In the case of `CC(=O)Nc1cc(NC(C)=O)cc(C(=O)NC(C)(C)C)c1` it was -0.383; in that of `COc1ccc(C(=O)n2nc(-c3ccccc3)nc2SC)cc1`, -0.0105; in that of `COc1ccc(OCCC(=O)N2CCCCC2)cc1`, -0.155.
With `O=C1c2ccccc2NC(c2ccc(-c3ccc(Br)cc3)o2)N1O` (stereo unspecified) the figure was active: 3.36.
With `O=c1cc(CO)occ1OCc1cccc(F)c1` the figure was 0.0037; with `CCc1c(C)nc(N)n2c(SCC(=O)N3CCCc4ccccc43)nnc12`, 0.329.
Take `O=C1CC(c2ccco2)CC2=C1C1c3ccccc3C(=O)N1c1ccccc1N2` (stereo unspecified): the z-score is -0.131.
In the case of `COc1ccc(C/C(N)=N/OC(C)=O)cc1OC` it was -0.0812.
In the case of `CCc1ccc(NC(=O)c2ccc(F)c(S(=O)(=O)N(CC)c3ccccc3)c2)cc1` it was 0.16; in that of `COc1ccccc1NC(=S)Nc1cccc(F)c1`, -0.134.
For `Cc1ccccc1S(=O)(=O)Cc1ccc(C(=O)NCCCN2CCN(C)CC2)o1`, the z-score worked out at 0.391.
With `COc1ccccc1NS(=O)(=O)c1cc([N+](=O)[O-])ccc1N/N=C/c1c[nH]c2ccccc12` the figure was -0.233.
In the case of `O=C(Cc1c(F)cccc1Cl)Nc1cccnc1` it was 0.22; in that of `Cc1ccc(C)n1-c1ccc(-c2nnco2)cc1`, 0.174.
In the case of `Cc1nccn1CC(O)COc1ccccc1` (stereo unspecified) it was -0.0583; in that of `O=c1[nH]c2ccccc2nc1/C=C(\O)C(F)F`, 0.122; in that of `CC(=O)Nc1ccc(S(=O)(=O)Nc2nc3ccc(C)cc3s2)cc1`, 0.464.
For the molecule `CCCC(=O)NC(Nc1ccccc1F)C(Cl)(Cl)Cl` (stereo unspecified), the z-score is -0.279.
`O=C(OCC(=O)N1N=C(c2ccc(Cl)cc2)CC1c1ccco1)c1ccccc1O` (stereo unspecified) yielded a z-score of 0.0346.
With `CC(C)(C)NC(=O)C(c1ccncc1)N(C(=O)CNC(=O)c1ccco1)c1ccc2c(c1)OCO2` (stereo unspecified) the figure was 0.106; with `CC(C)C(NC(=O)C12CC3CC(CC(C3)C1)C2)C(=O)NC1=NCCS1` (stereo unspecified), -0.431.
With `CC(=O)C1=C(C)NC(=O)NC1c1ccc(OC2CCCC2)cc1` (stereo unspecified) the figure was -0.185; with `CCCn1c2c(c(O)c(C(=O)NCCCN(CC)CC)c1=O)CCCC2`, 0.585.
With `COc1ccc(C2C3=C(CC(C)(C)CC3=O)Nc3cc4c(cc32)OCO4)cc1` (stereo unspecified) the figure was -0.138.
Regarding `CC(C)NS(=O)(=O)c1ccc(OCC(=O)Nc2ccc(F)cc2F)cc1`, the z-score is -0.272.
With `O=C(c1cc2nc(-c3cccs3)cc(C(F)(F)Cl)n2n1)N1CCCc2ccccc21` the figure was 1.32; with `CN(CCO)c1ncnc2nc[nH]c12`, 0.434; with `CC(=O)c1c(N2CCOCC2)nc(=O)n(-c2ccccc2)c1C`, 0.0445.
With `COc1ccc(CCN2CC(O)=C(c3nc4ccccc4c(=O)[nH]3)C2=N)cc1OC` the figure was -0.416; with `COC(=O)c1ccc(NC(=O)C2CC(=O)N(c3cc(C)ccc3C)C2)cc1` (stereo unspecified), -0.0858.
In the case of `N#CC(C(=O)c1ccco1)c1ccccn1` (stereo unspecified) it was 0.705; in that of `O=C(C1=C(O)C(=O)N(Cc2ccccc2)C1c1cccnc1)c1ccco1` (stereo unspecified), -0.769.
With `O=C(CSc1nnnn1C1CCCCC1)NCc1cccc(C(=O)O)c1`, the z-score is -0.303.
In the case of `Cc1oc(-c2cccc(Cl)c2)nc1CN1CCC(C(=O)NCc2cccnc2)CC1` it was -0.0247.
On to `COc1ccc(-n2c(-c3ccccc3)cc3c2CCCC3=O)cc1`, for which the z-score was -0.36.
In the case of `O=C(Nc1nccs1)C(=O)c1c[nH]c2ccccc12` it was 0.0629; in that of `COc1ccc2cc3cc(C(=O)Nc4cc(OC)c(OC)c(OC)c4)oc3nc2c1`, -0.255.
In the case of `COc1ccc(OCC(=O)NN2Cc3ccccc3C2=N)cc1` it was 0.0323.
Regarding `COc1ccc2nc(SCC(=O)N3CC(=O)Nc4ccccc43)c(C#N)cc2c1`, the z-score was -0.773.
With `CCC(C)(C)NC(=O)C(c1cccc(OC)c1)N(C(=O)c1ccn[nH]1)c1cccc(OC)c1` (stereo unspecified) the figure was -1.39; with `O=C(NCc1ccc(Cl)cc1)c1cc(-c2cccs2)on1`, -0.283.
In turn, `COc1ccccc1NC(=O)C1=C(C)Nc2nc(-c3ccccc3)nn2C1c1ccccn1` (stereo unspecified) returned a z-score of 0.166.
On to `CCOCCCNC(=O)C(c1ccc(OC)cc1)N(Cc1ccc2c(c1)OCO2)C(=O)CNC(C)=O` (stereo unspecified), for which the z-score came to 0.266.
In the case of `O=C(Nc1nnc(-c2ccccc2F)s1)C1CCCO1` (stereo unspecified) it was 0.0714.
`CCCNC(=O)c1[nH]c(C)c(C(C)=O)c1C` gave a z-score of 0.141.
With `COc1cc(/C=N\NC(=O)CN2CCOCC2)ccc1OCC(=O)Nc1ccc(C)c(C)c1` the figure was -0.123; with `CCc1nc(Nc2ccc(N3CCN(C(C)=O)CC3)cc2)c2oc3ccccc3c2n1`, -0.238.
`O=C(c1ccco1)N1CCC(c2ccccc2)C1` (stereo unspecified) came in with a z-score of 0.0412.
In the case of `C=CCC(CC=C)(NC(=O)c1ccccc1C(=O)O)c1ccccc1` it was 0.0704; in that of `CS(=O)(=O)N(CC(=O)N/N=C/c1cc2c(cc1Br)OCO2)c1ccccc1Br`, -0.0775.
`Cc1ccc(/C=N/NC(=O)c2ccc(C(=O)N/N=C/c3ccc(C)s3)o2)s1` came in with a z-score of 0.0623.
In the case of `O=C(Nc1ccn(Cc2ccccc2F)n1)c1ccc(COc2ccc(Br)cc2)cc1`, the z-score was -0.439.
With `Cc1cc(-c2n[nH]c(=S)o2)c(C)n1-c1ccccc1` the figure was 0.0801.
Molecule `NS(=O)(=O)c1ccc(CCNC(=S)Nc2ccc(S(N)(=O)=O)cc2)cc1` showed a z-score of 0.115.
In the case of `COC(=O)c1ccc(CSc2nc3c(c(=O)n2-c2ccc(F)cc2)SCC3)o1` it was active: -3.65; in that of `COc1ccc(C(=O)Nc2ccc3c(c2)nc(CCNC(C)=O)n3C)cc1`, -0.0809; in that of `CCC(c1c(C)n(C)n(-c2ccccc2)c1=O)c1c(C)n(C)n(-c2ccccc2)c1=O`, 0.0304.
With `CCC(C)(C)NC(=O)C(c1ccc(F)cc1)N(Cc1ccco1)C(=O)c1cnccn1` (stereo unspecified) the figure was active: 3.05; with `O=C(CNCCN1CCOCC1)Nc1ccccc1Sc1ccccc1`, 0.0321.
For `Cc1cc(C)c2c(N)c(C(=O)NC3CC3)sc2n1`, the z-score was -0.539.
As to `COc1ccc(OC)c(C(c2nnnn2CC2CCCO2)N2CCN(C3CCCC3)CC2)c1` (stereo unspecified), the z-score was 1.27.
With `O=C1COc2ccc(C(=O)COC(=O)c3sc4ccccc4c3Cl)cc2N1` the figure was -0.245; with `CCOc1cccc(-c2cc(=O)[nH][nH]2)c1`, 0.0756.
The molecule `O=C(CC1Oc2ccccc2NC1=O)NCCCN1CCN(C2CCCCC2)CC1` (stereo unspecified) returned a z-score of 0.359.
With `O=C(O)C1C2C=CC(C2)C1C(=O)NCCc1ccccc1` (stereo unspecified) the figure was -0.122.
In the case of `CCOC(=O)C1CCN(C(=O)COc2ccc(S(=O)(=O)NC(C)C)cc2)CC1` it was -0.107; in that of `O=C(NCc1ccccc1)c1cc(S(=O)(=O)N2CCC3(CC2)OCCO3)ccc1F`, 0.0291.
With `N#CCCN(CCC#N)C(=O)COc1ccc(Cl)cc1Cl` the figure was 0.143; with `CC1Cc2ccccc2N1C(=O)Cc1cccs1` (stereo unspecified), -0.395; with `COc1ccc2c(c1)CCC/C2=N\NC(=O)c1ccoc1C`, -0.15.
As for `CCN1C(=O)N(CC)C2C1N(C(C)=O)C(=O)N2C(C)=O` (stereo unspecified), the z-score was -0.4.
For the molecule `C/C(CC(=O)NC(C)(C)C)=N\NC(=O)c1ccco1`, the z-score was -0.165.
As to `COc1ccc(-n2c(C)cc(C(=O)CSc3nn4c(=O)c(C(C)(C)C)nnc4s3)c2C)cc1`, the z-score was -0.483.
With `CC(C)CN=c1cc(-c2ccccc2)oc2ccc(Cl)cc12` the figure was -1.43; with `CC(C)Nc1nc(NC(C)C)nc(NS(=O)(=O)c2ccc(N)cc2)n1`, -0.0611; with `Cc1ccc(S(=O)(=O)N2CCC(=O)N2)cc1`, 0.0388.
In the case of `Cc1onc(-c2ccccc2Cl)c1C(=O)Nc1ncn[nH]1` it was 0.135.
As for `CCN(CC)CCNC(=O)c1ccc(NC(=O)c2ccc(Cl)c(S(=O)(=O)Nc3ccccc3OC)c2)cc1`, the z-score was 2.14.
For `N=c1n(CCO)c2ccccc2n1CCOc1ccc(Cl)cc1Cl`, the z-score was determined as 0.259.
With `O=C(NCCc1nc2ccccc2[nH]1)/C(=C/c1ccc2c(c1)OCO2)NC(=O)c1ccccc1Cl` the figure was -1.09; with `COc1cc2c(cc1OC)CN(C(=O)CCCOc1ccc(Cl)cc1Cl)CC2`, -0.416.
In the case of `CCn1c2ccccc2c2cc(/C=N/NC(=O)c3ccc(O)cc3)ccc21` it was -0.325; in that of `Cc1cccn2c(/C=N/OCc3ccc(F)cc3)c(-c3ccc(Cl)cc3)nc12`, 0.0899; in that of `N#Cc1nc(-c2cccs2)oc1NCc1ccco1`, 0.26.
As for `CSc1nc(N)nc(SC2C=CCCC2)c1C#N` (stereo unspecified), the z-score is -0.137.
In the case of `Cc1nn(C)cc1C(=O)Nc1ccccc1Br` it was -0.343.
In the case of `Cn1ncc(Cl)c1C(=O)NCc1cc(C(C)(C)C)n[nH]1` it was -0.338; in that of `CC1Cc2ccccc2N1C(=O)Cn1c(=O)oc2cc(S(=O)(=O)N3CCCCC3)ccc21` (stereo unspecified), -0.25.
In the case of `Cc1cc(C)cc(N(CC(=O)NC2CCCCC2)C(=O)c2ccc(C)s2)c1` it was -0.0241; in that of `NC(=O)c1sc2nc(-c3ccco3)ccc2c1N`, -0.321; in that of `CCOC(=O)c1sc(-c2ccc(Br)cc2)cc1N`, -0.146.

The record behind these values is PubChem BioAssay AID488969 (Vanderbilt High Throughput Screening Facility, 2010).
